# Whole data set: some 33,000 sequences, median “E-score (-0.5 to 0.5)” near -0.035, cut for the highest 2% near 0.34. Some of the results follow.
# Biological target: T1, Mot3 (UniProt P54785)
# T1 sequence: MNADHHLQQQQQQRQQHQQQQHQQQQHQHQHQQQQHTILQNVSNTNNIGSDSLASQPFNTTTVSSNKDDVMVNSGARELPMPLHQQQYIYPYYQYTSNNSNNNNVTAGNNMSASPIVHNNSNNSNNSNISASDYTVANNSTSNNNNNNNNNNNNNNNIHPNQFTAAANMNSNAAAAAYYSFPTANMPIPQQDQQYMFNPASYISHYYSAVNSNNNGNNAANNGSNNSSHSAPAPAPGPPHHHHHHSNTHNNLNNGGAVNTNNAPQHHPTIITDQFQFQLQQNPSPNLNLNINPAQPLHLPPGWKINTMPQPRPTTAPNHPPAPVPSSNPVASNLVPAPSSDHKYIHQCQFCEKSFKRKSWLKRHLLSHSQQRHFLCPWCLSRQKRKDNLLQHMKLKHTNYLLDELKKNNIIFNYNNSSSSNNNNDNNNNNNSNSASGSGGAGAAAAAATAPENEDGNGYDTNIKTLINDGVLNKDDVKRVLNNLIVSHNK
# Experiment: PBM E-score (8-mer binding enrichment) (E-score (-0.5 to 0.5)); higher = stronger / more preferred TF binding; most listed sequences are background and not binding sites
# Conditions: protein concentration: 200 nM; construct: GST-full length
# Summary of the method: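 Universal all-10-mer Agilent arrays, double-stranded by primer extension on fresh or once-stripped slides, were probed with about 100-200 nM GST-tagged yeast transcription factors made by PURExpress. Fluorescent anti-GST detected bound protein, and masliner normalised the scans. E-scores from the Universal PBM Analysis Suite were given to each ungapped eight-base word pooled with its reverse complement.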
row,Sequence,PBM E-score
1,ACTACTAC,0.106
2,CTTTAGGC,0.207
3,ACGTACAA,0.258
4,CCCTAGCC,-0.354
5,CAGAGTCC,-0.184
6,CCCAGCTC,-0.376
7,GAATCCTC,-0.161
8,CGTGGCAC,0.0988
9,ATGACGCA,0.00754
10,CTCAACGA,-0.178
11,ATGGGAGG,-0.0718
12,GCCCGGCA,-0.243
13,ATACGTCA,0.0159
14,ACCTCCCA,-0.12
15,ATGTTCTA,0.127
16,AAACTTGC,0.0978
17,AGCGGTCG,-0.237
18,CCCCAGAG,-0.196
19,ACCCACTC,-0.122
20,AATTGACT,-0.0175
21,AAAGGTGT,0.105
22,CAGGACTC,-0.104
23,CCTTATTA,0.102
24,AAGGCATT,0.362
25,GACGACGC,-0.155

row,Sequence,PBM E-score
1,CGTGTCAC,0.157
2,CACGTACC,0.143
3,ATCGGCCA,-0.35
4,ACCAGCCA,-0.131
5,CCGTCGGA,-0.134
6,GGCTGCTA,-0.111
7,AGTGCCAT,0.0123
8,GACCAATA,0.034
9,GCACTAGC,-0.122
10,CCGCCCTC,-0.324
11,CTAGCTGC,-0.229
12,CAAGTTTC,-0.0401
13,ACCATGCT,-0.0411
14,ACCCACAA,0.106
15,GACTGACC,-0.185
16,CAACTCGG,-0.134
17,TCCATTCA,-0.201
18,AGAGCAGC,-0.053
19,GCTGTGAA,0.0424
20,CCTTGCAA,-0.0849
21,TGCGTAAA,0.342
22,TATGCTCA,0.108
23,ATGTCCAA,0.0425
24,AGTAGTCG,0.0661
25,CCCAACCA,-0.0498

row,Sequence,PBM E-score
1,ACAGGTTA,0.155
2,ATTCAAAC,0.12
3,ACGGGAGA,-0.0875
4,AATTTTAT,0.0903
5,ACCAATGA,-0.0605
6,CACCATTC,-0.0923
7,AGGAGTAC,0.171
8,AATAAGAG,-0.137
9,CCCAAGGG,-0.379
10,GTGACGAA,-0.104
11,ACCGGGAC,-0.156
12,AGTCCGAA,-0.0534
13,ATAGTTGG,-0.162
14,GATATTGC,-0.0968
15,CCCCACCG,-0.337
16,GATAATAA,-0.0982
17,CGGAAGTA,-0.114
18,CGGGCATC,-0.287
19,CGCTAAAC,0.0334
20,CAGTAAGC,-0.142
21,ATGCCCAG,0.0604
22,CCGTAGAG,-0.309
23,GCCGAAGC,-0.267
24,AGGTGCCG,-0.046
25,AATTCATC,0.0469

row,Sequence,PBM E-score
1,GTTCACCA,0.00023
2,GAAAACCC,0.0202
3,GCGAAGAC,-0.2
4,CGTTCTTC,-0.0469
5,AGCCCCAG,-0.255
6,AATGAGCA,-0.132
7,ACCCGCTG,0.0394
8,CCCCGGCG,-0.196
9,AACGGGTG,-0.0602
10,CTCCGACC,-0.297
11,AACACTCC,0.0705
12,AAAGCTCC,-0.102
13,ATCCGCAA,-0.0584
14,CTCTTGCC,0.236
15,AACGTAGA,0.161
16,AGCTAAGC,-0.132
17,CAACTCCG,-0.279
18,TATAAGAA,-0.036
19,CGGGTGAG,-0.333
20,AATTTGTC,-0.0857
21,ATGCTCTA,-0.00028
22,TCAAAACA,0.205
23,CTTTTCGC,0.124
24,TCCGACAA,0.0252
25,CCTGCCAC,0.00164

row,Sequence,PBM E-score
1,ACTAGATG,-0.0217
2,CGGTGTCA,-0.029
3,CTTATAAG,-0.149
4,GAATGAAA,0.0726
5,CATTCGAA,0.134
6,ATGGTCTG,-0.134
7,GATGTAAC,0.175
8,GATGGGAC,-0.287
9,ATTCGTTG,0.0945
10,ATATTTCG,0.0141
11,AAGTATGC,0.00412
12,GCTTACCC,-0.351
13,TCACTCAA,-0.163
14,AAACGGGC,0.0596
15,ATGCCGTC,-0.0588
16,GCTTAATA,-0.171
17,TACGAAGA,0.0468
18,AGCTTACT,-0.0685
19,CAAGAGTG,-0.0522
20,CGTCAACA,0.165
21,AGCTTAGA,0.0556
22,AGGTGATA,-0.0326
23,CCAGAAAG,0.0871
24,CACCCGGG,-0.205
25,ACATATTG,0.0654

row,Sequence,PBM E-score
1,AAGGCAGC,0.276
2,CCTGTCCG,0.099
3,CGGGAGCC,-0.311
4,GTGTAGCA,0.168
5,ACCCAAAG,-0.0176
6,GGAAGGCC,-0.214
7,GTGCAAAC,0.0488
8,CCTGCTTC,-0.00779
9,CATATGCA,-0.0842
10,CATAATGA,0.0358
11,GGGCCCGA,-0.144
12,ATTCGGAG,-0.0693
13,CCTTGTAG,0.311
14,AGCTCTTC,-0.103
15,ATCGACTG,-0.268
16,TATTTACA,0.386
17,CTCCCCCC,-0.269
18,CTCTCAAG,-0.255
19,ATTGTGCA,-0.0597
20,GAAGTCAC,0.0721
21,AGGCACCC,0.491
22,CCGGGCAC,0.0258
23,ATCAATCG,0.106
24,CAGCAACA,0.112
25,CGATGGTC,-0.213

row,Sequence,PBM E-score
1,CTTCTTGC,0.242
2,ACGCCCCA,-0.128
3,CGGCGGAC,-0.165
4,CGCCAGCC,-0.187
5,ACACTGGC,0.00843
6,GGGAAGCA,-0.178
7,ACAGTTCC,0.153
8,AGTATAGA,-0.0939
9,AATGTACG,0.125
10,AAGACAAT,-0.0682
11,CCTTCTAC,0.222
12,GTGCTTCA,-0.048
13,CGCGGCCG,-0.272
14,AATGCCCA,-0.0213
15,ACTTGGGG,-0.134
16,CCAGAGAA,-0.0675
17,GCAACTGC,0.0618
18,ACAATAAG,0.0916
19,CAAAAAAC,0.193
20,GACAAACC,-0.00892
21,ATCTCGGC,-0.296
22,GCCCATTA,0.0591
